Laboratory results from PubChem BioAssay AID1645887 (National Center for Advancing Translational Sciences (NCATS), 2021).
Values joined by “and” are separate entries in the source; they are usually repeats but may differ in a detail not shown here. Identical values can stand only once. Out of some 16,000 compounds screened, about 40 (0.2%) were called active. Roughly 1% stayed inconclusive and do not appear here. The call rests on the fitted dose curve; in most records, active means well fitted activation curve with a large enough effect; inconclusive means small, poorly fitted or top-dose-only effect, or another doubt; inactive means no such curve, though single readings can be large or run the other way. This is one part of the list.

biological target: Rap guanine nucleotide exchange factor 4 (Homo sapiens) (UniProt Q8WZA2); test: Validation qHTS for agonist of cAMP-regulated guanine nucleotide exchange factor 4 (EPAC2); details: EPAC2 Rap1B BODIPY-GDP exchange, fluorescence; activation: stronger effect = higher value;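 further: exchange makes BODIPY-GDP fluorescence drop when released from Rap1B; series mostly up to about 150 µM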
Procedure, shortened: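 Fluorescent exchange assay: 100 nM EPAC2 with 250 nM RAP1B-BODIPY-GDP and 50 uM GDP; compound added, 5 min at room temperature, then read (ex 480/em 540 nm) every 5 min for 30 min. Normalized to 6.5 mM cAMP agonist control.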
On the % scale 0 is the no-effect control and ±100 the full control effect.

UniProt Q8WZA2, sequence (Q8WZA2 whole entry, looked up): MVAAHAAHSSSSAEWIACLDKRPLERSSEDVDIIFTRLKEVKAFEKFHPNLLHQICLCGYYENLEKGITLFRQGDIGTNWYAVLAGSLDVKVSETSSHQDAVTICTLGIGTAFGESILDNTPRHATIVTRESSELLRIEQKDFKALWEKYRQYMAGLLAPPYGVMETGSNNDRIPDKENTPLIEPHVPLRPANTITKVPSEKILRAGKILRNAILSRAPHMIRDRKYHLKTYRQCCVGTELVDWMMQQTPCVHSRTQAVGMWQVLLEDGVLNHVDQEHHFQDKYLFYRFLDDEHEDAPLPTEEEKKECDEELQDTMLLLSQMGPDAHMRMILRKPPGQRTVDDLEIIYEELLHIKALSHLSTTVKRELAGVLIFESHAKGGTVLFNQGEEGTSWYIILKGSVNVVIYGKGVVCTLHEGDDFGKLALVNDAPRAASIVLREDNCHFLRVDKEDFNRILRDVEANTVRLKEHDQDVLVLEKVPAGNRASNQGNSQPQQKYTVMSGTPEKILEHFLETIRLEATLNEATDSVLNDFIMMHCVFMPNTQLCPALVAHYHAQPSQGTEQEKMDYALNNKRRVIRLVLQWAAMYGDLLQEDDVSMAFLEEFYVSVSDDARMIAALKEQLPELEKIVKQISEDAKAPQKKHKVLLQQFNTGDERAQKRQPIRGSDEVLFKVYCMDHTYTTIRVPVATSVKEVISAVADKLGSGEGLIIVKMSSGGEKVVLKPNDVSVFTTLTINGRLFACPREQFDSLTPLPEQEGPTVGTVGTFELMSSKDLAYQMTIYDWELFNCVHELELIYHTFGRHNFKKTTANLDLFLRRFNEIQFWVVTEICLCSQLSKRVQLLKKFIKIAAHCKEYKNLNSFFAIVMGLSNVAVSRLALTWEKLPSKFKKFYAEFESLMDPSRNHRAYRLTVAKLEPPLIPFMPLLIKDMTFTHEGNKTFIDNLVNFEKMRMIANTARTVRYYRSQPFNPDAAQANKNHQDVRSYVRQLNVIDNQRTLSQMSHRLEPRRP

activation, inactive:
COc1ccc2[nH]cc(CCNc3cc(-c4ccc5c(c4)OCO5)ncn3)c2c1 -16.8%
NCCNS(=O)(=O)c1cccc2c(Cl)cccc12 -2.64% and -30.7%
COCCn1c(=O)c(CCc2ccccc2)nc2cnc(Nc3cccc(OC)c3)nc21 -1.34%
Cc1nc(CN2CCN(C(=O)CC3(c4ccccc4Cl)CC(=O)N(C)C3=O)CC2)cs1 (stereo not drawn) -3.26%
Nc1ncnc2c1ncn2[C@@H]1O[C@H](COP(=O)(O)CP(=O)(O)OP(=O)(O)O)[C@@H](O)[C@H]1O 5.3% and -13%
NC(=O)NC1NC(=O)NC1=O (stereo not drawn) 2.29% and 18.4%
COc1cc(Cl)c(C)cc1N1C(=O)[C@@H]2C[C@H]1CN2Cc1ccccn1 -6.77%
O=C1CCc2ccc(OCCCCN3CCN(c4cccc(Cl)c4Cl)CC3)cc2N1 -1.51%
COc1ccccc1C1CN(Cc2cccn2-c2ncccn2)Cc2ccccc2O1 (stereo not drawn) 7.51%
CCCCCCCCCCCCCCCC(=O)C(F)(F)F -23.6%
Cc1cnc(SCc2ccccn2)nc1C1CCCN(C(=O)c2ccc3c(c2)OCO3)C1 (stereo not drawn) 3.46%
CN(C)CCOC(c1ccc(Cl)cc1)c1ccccn1 (stereo not drawn) -17.1% and -0.718%
COc1ccc(NC(=O)N2CCC3(CC2)CCN(S(=O)(=O)c2ccccc2)CC3)cc1 5.15%
N#CCCn1c(=O)c(-c2ccccc2)nc2cnc(Oc3cccc(Cl)c3)nc21 -25.4%
COC(=O)N1CCC2(CCCN(C(=O)Nc3cccc(F)c3)C2)CC1 -1.68%
COc1c2ccoc2cc2oc(=O)ccc12 -7.38% and 0.068%
CNc1ncncc1-c1ccccc1OC -17.1%
COc1cc(-c2c(-c3ccc4c(c3)OCO4)noc2-c2ccsc2)ccc1F -21.3%
O=C(c1ccco1)N1CCC2(CC1)CN(c1ccccc1)C2 -7.02%
O=C(Nc1cccc(F)c1)N1CC2(CCN(C(=O)c3cc(C(F)(F)F)cc(C(F)(F)F)c3)CC2)C1 -10.5%
COC(=O)c1ccccc1-c1cc(C)cc2c1OC(CNC(=O)c1cc(C)on1)C2 (stereo not drawn) -6.95%
CC(C)(C)CC(C)(C)N=C1Nc2ccccc2NC12C[C@H]1CCC(=O)N3CC[C@@H](C2)[C@@H]13 (stereo partly drawn) -40.2%
Cc1noc(C)c1C(=O)N1CCC2(CC1)CCN(c1ccccn1)CC2 -14%
NCCCC(N)(C(=O)O)C(F)F (stereo not drawn) -3.31% and -17.6%
O=C(NCC1Cc2cccc(-c3cnccn3)c2O1)c1ccc2c(c1)OCCO2 (stereo not drawn) -1.91%
Cc1c(C(=O)NCCN2CCOCC2)cnn1-c1nccc(-c2cc3ccccc3o2)n1 1.85%
COc1cccc(-c2ccnc(-n3ncc(C(=O)NCC4(N5CCCCC5)CCCC4)c3C)n2)c1 -6.78%
Cc1ccc2c(c1)CN(CCNC(=O)c1cc3ccccc3oc1=O)CC(C)O2 (stereo not drawn) -23.9%
CCCN1CCC(=O)N([C@H](CO)c2ccccc2)CC1 -37.7%
O=C(Nc1ccc([N+](=O)[O-])cc1)Nc1ccc([N+](=O)[O-])cc1 -1.58%
CCCCCCCCCCCC1=C(O)C(=O)C=C(O)C1=O -14.9% and -42.5% and -33.1%
CC(=O)Nc1ccc(OCCOCCOc2ccc(NC(C)=O)cc2)cc1 -26.4%
CC(C)NC(=O)N1CCCC2(CCN(C(=O)c3cccc(F)c3)CC2)C1 -15.3%
CC(=O)NCCNc1nc(-c2ccccc2Cl)nc2ccccc12 -18.6%
COCCn1c(=O)c(-c2ccccc2)nc2cncnc21 1.03%
COc1ccccc1C1CN(Cc2cnn(C)c2C)Cc2ccccc2O1 (stereo not drawn) -9.25%
CSC(N)=NCCC[C@H](N)C(=O)O -11.5%
COc1ccc(-n2c(=O)c(-c3cccs3)nc3cnc(OC)nc32)cc1 -2.08%
Cc1cccc(CNc2ncnc3ccc(-c4cccc(C#N)c4)cc23)c1 -1.23%
C[C@H]1CCC(=O)N([C@H](CSc2ccc(Br)cc2)Cc2ccccc2)CC1 -11.7%
Cc1ccsc1C1Cc2c(C(=O)NCc3cccnc3)c(=O)cc(C)n2-c2ccccc2S1 (stereo not drawn) -13.2%
CN1CCN(c2cc(-c3ccccc3C(F)(F)F)ncn2)CC1 0.575%
C[C@H]1[C@H]2CC[C@H]3C4CC=C5C[C@@H](N(C)C)CC[C@]5(C)C4CC[C@]23CN1C (stereo partly drawn) 9.8%
O=C(c1ccccc1-n1cccn1)N1CCOc2c(cc(-c3ncc(C(F)(F)F)cc3Cl)cc2OCC2CCCO2)C1 (stereo not drawn) -13.4%
Cc1cnc(C)c(-c2cccc3c2OC(CNC(=O)CN2C(=O)c4ccccc4C2=O)C3)n1 (stereo not drawn) -9.97%
CCCCCOC(=O)Nc1nc(=O)n([C@@H]2O[C@H](C)[C@@H](O)[C@H]2O)cc1F -23.6%
Cc1nonc1CN(C)C(=O)C1CC12CCN(C(=O)/C=C/c1cccc(Cl)c1)CC2 (stereo not drawn) -2.13%
C[N+](C)(CCCCCC[N+](C)(C)C1c2ccccc2-c2ccccc21)C1c2ccccc2-c2ccccc21 -2.31%
O=C(Cn1cnnn1)N[C@@H]1C(=O)N2C(C(=O)O)=C(CSc3nncs3)CS[C@H]12 0.73% and 6.29%
COc1ccc(NC(=O)c2ccc(-c3ccc(-c4noc(C)n4)cc3C)cc2)cc1N1CCN(C)CC1 -35.6% and -60.6%
CCCCNc1ccc(C(=O)OCCN(C)C)cc1 -17.6% and 13.8% and -4.2%
CC(C)[N+]1(C)[C@@H]2CC[C@H]1CC(OC(=O)[C@@H](CO)c1ccccc1)C2 (stereo partly drawn) -18.3%
CN1CCOC(c2ccccc2)c2ccccc2C1 (stereo not drawn) -23.5% and -8.6%
COc1cc2nc(N3CCCC(O)C3)c(CNCc3ccccc3F)cc2c(OC)c1OC (stereo not drawn) -9.43%
CN(C)C(=O)OC1=C(c2ccccc2)Sc2ccccc2-n2cccc21 -1.71%
O=C(Oc1ccccc1)N1CCC2(CCCN(c3cccc(-c4ccccc4)c3)C2)CC1 7.82%
COc1ccc(C(=O)N2CCC3(CC2)CN(c2ncccn2)C3)cc1 -4.42%
Cc1cccc(C)c1OCC(N)C(C)C (stereo not drawn) -27.9%
CSc1ncccc1C(=O)NCC1Cc2cc(-c3cnccn3)cc(Cl)c2O1 (stereo not drawn) 5.39%
C[C@H](CSC(=O)c1ccccc1)C(=O)N1C[C@@H](Sc2ccccc2)C[C@H]1C(=O)O -5.99%
N#Cc1cccc(NC(=O)N2CCCC3(CCN(C(=O)c4cc(C(F)(F)F)cc(C(F)(F)F)c4)CC3)C2)c1 -15.8%
CC1CCC(C(C)C)[C@H](O)C1 (stereo partly drawn) -15.2%
COCC(=O)N1CCC2(CC1)CN(c1ccc(-c3ccccc3)cc1)C2 7.7%
COC(=O)c1ccccc1-c1cc(C)cc2c1OC(CNC(=O)c1ccn(C)n1)C2 (stereo not drawn) -16.5%
CN1CCC(=C2c3ccccc3CCc3sccc32)CC1 -29.5% and -28.6%
Cc1cnc(CNc2ncnc3ccc(-c4ccccc4Cl)cc23)cn1 4.55%
N=c1ccn2c(n1)OCC1C2O[C@@H](O)[C@H]1O (stereo partly drawn) -22.2%
O=C(OC1Cc2c(O)cc(O)cc2OC1c1cc(O)c(O)c(O)c1)c1cc(O)c(O)c(O)c1 (stereo not drawn) -4.39%
COc1cccc(CNC(=O)c2c(OC)cc(=O)n3c2CCN(C(=O)c2ccccc2Cl)CC3)c1 -4.53%
OCC(O)CS (stereo not drawn) -10.5%
CCc1ccc2c(O)c3c(cc2c1C(=O)OC)C(=O)c1c(O)ccc(O)c1C3=O -1.19%
CN1CC(O)C2=CC(=O)C(=O)C=C21 (stereo not drawn) -25.5%
COC(=O)[C@@H]1CCCN1Cc1ccc2c(c1)CN(Cc1ccccc1)CCO2 -9.31%
O=C(Cc1ccccc1)Nc1nc2ccc(Cl)cc2c2nc(-c3ccco3)nn12 -27.8% and -12.4%
CC(C)NC[C@H](O)COc1cccc2[nH]ccc12 -18% and 8.75% and -22.2%
COc1ccc2c(c1)OC(C)(C)C(c1ccccc1)C2c1ccc(OCCN2CCCC2)cc1 (stereo not drawn) 10.9%
CC(C)CN1CCCC2(CCN(C(=O)c3csnn3)CC2)C1 -2.35%
CC(=O)Nc1ccc(SCCN2CC[C@@H](O)CCC2=O)cc1 -14.4%
CC(C)NCC1CCc2cc(CO)c([N+](=O)[O-])cc2N1 (stereo not drawn) -17.1%
COCCn1c(=O)c(-c2cccc(C#N)c2)nc2cnc(N(C)C)nc21 -11.5%
Cc1cnc(C(=O)NCCc2ccc(S(=O)(=O)NC(=O)NC3CCCCC3)cc2)cn1 -5.76% and 4.74% and -16.6%
Cc1nc(C(C)NC2CCN(c3cccc(NC(=O)c4ccncc4)c3)CC2)cs1 (stereo not drawn) 1.39%
O=C1[C@H](CC[C@H](O)c2ccc(F)cc2)[C@@H](c2ccc(O)cc2)N1c1ccc(F)cc1 9.77%
